Test results reported in the supplement of paper PMC3334620.
The full ranking holds about 33,000 sequences; the median of “E-score (-0.5 to 0.5)” is about -0.04, and the highest 2% start at about 0.36. Some of the results follow.

target: T1, Hmlalpha2 (UniProt P0CY09); assay: PBM E-score (8-mer binding enrichment) (E-score (-0.5 to 0.5)); higher = stronger / more preferred TF binding; most listed sequences are background and not binding sites; settings: protein concentration: 200 nM; construct: GST-full length
T1 sequence: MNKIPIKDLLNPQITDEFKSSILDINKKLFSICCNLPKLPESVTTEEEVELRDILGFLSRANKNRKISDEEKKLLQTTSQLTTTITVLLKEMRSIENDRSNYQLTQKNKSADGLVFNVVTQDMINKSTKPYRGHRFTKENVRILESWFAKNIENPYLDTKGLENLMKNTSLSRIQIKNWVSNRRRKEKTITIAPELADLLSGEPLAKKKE
Procedure, shortened: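 Universal all-10-mer Agilent arrays, fresh or stripped once, were converted to double-stranded form by primer extension. GST-tagged yeast transcription factors from PURExpress in vitro transcription/translation, full-length or DNA-binding domain only, were applied at about 100-200 nM and detected with fluorescent anti-GST. After masliner normalisation, the Universal PBM Analysis Suite scored each ungapped eight-base word together with its reverse complement by E-score.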

Sequence | PBM E-score
AGGCACTG | -0.0971
CGAAGACA | -0.108
AGAGCCCT | -0.181
TGACGGAA | -0.0498
AACGCGCT | 0.222
GCAAATTA | 0.107
CCACTGGC | -0.115
CGGCGAGC | -0.196
GCGATAAA | -0.0654
ACTGGGAG | -0.218
CGATCAAG | 0.0473
AGTTACTA | 0.122
GACTAGGA | -0.13
GAGCAACA | 0.0944
CTGGCCTA | -0.192
CACGGCTA | 0.211
GCGAGATA | -0.0725
AACTATCG | -0.0993
TCGGACCA | -0.181
CTATGACC | -0.133
ACTAGCTA | -0.0302
AGGGCTAA | -0.0732
ACGAGAGC | -0.211
GCGCTTTA | 0.0987
CCTTTCGA | -0.164

Sequence | PBM E-score
CGCTTCAA | -0.0744
AGTTCTTC | -0.0111
ACTACACG | 0.454
ATCTTTTG | 0.0487
ACATGCCG | 0.356
TATGGGGA | -0.0461
AAGGACGT | 0.178
ATCGGTAC | -0.0952
TAGCGCTA | 0.0261
ATCATAGA | 0.0951
CTATCGTC | -0.127
ACGAAAAC | 0.227
CTGGCTTC | -0.22
AAGCGGCT | -0.0809
AAAGTCGT | -0.0456
CAAAACTG | 0.105
ATCCCAAC | -0.0423
ACAGGCGA | 0.0422
CTAGTAAA | 0.318
ATTAAACG | 0.291
CGACTGCC | -0.184
ACAGCTCG | -0.12
GACCTTCA | -0.147
AGCAGCCG | -0.126
AGAATGCG | -0.00591

Sequence | PBM E-score
TCAGCCAA | -0.103
ATCTCGCA | 0.216
AAGACTAA | -0.0103
TGATGGAA | -0.0135
ATGTCACA | 0.288
GTTTAAAA | 0.215
AATGTGAG | 0.102
CCTTTGAC | -0.0635
CGCGTCAC | 0.152
CTCTTGGC | -0.183
GCCATTGA | -0.162
ATTTCAGG | -0.044
GAAGCTGC | -0.129
CCAACTTA | 0.106
AAGTGACC | -0.0975
ATGTTGGC | 0.207
CGAAGGCA | -0.201
AGGCATTG | 0.0513
ACACCCAA | -0.0235
AGTATCGA | 0.0829
GGACACTA | -0.0613
TACGAATA | 0.199
CGACAGCG | -0.0823
ACAGGACA | 0.22
CGCACTGA | -0.0603

Sequence | PBM E-score
ACCCGCCG | -0.0427
GCTAAGGA | -0.195
CTAGCGTA | -0.255
AGACTAGC | -0.214
AAGTTGCT | -0.0501
CTCACCGA | -0.152
ACCTGTTA | 0.222
GTACCTAC | 0.0328
ACTTTTGC | 0.0765
GGTGTTCA | 0.113
CGAGCTGA | -0.105
AGCAGCAT | -0.133
AGGTGACC | -0.212
TCCTGGAA | -0.242
GATGTATA | 0.237
ACTACTCC | -0.0557
CCCACACC | -0.0147
ACCGACGC | 0.123
CCGCGTAC | 0.266
AACTTCTG | 0.0373
CCAAGGGA | -0.322
CACGGCGA | 0.175
CCTTCACA | 0.0306
ACACCAAG | 0.142
CTGACGGA | -0.0982

Sequence | PBM E-score
AATCGAGC | -0.131
ATCCTCAA | -0.00249
CGGGTAAC | -0.0328
ACCAGCGA | -0.275
ATTACGCG | 0.467
ACGTCATG | 0.214
GCAATCGA | -0.114
CAGCCGCA | -0.393
ACCTTTGA | -0.0894
CCATGTGA | 0.184
CACCGGAA | -0.161
CTCGTTGA | 0.0467
TCCAATCA | -0.261
AAATTAGA | 0.177
GAAAGTCC | -0.328
ATTGACAG | -0.0357
GAATTCAC | 0.123
GTATCCAA | 0.00048
AGATTTTA | 0.136
GGAGGACC | -0.288
TATTGGGA | -0.0408
CCCGATTA | 0.0732
CACCGATG | -0.0352
AGACTCAG | -0.286
AGGACTGC | -0.293

Sequence | PBM E-score
GGTACTAC | 0.113
CTTCGGGC | -0.237
AGTGGCAT | -0.239
CCACTAAG | -0.203
CGCAGTTC | -0.0105
AGTAGCCC | -0.268
GCGAAGCA | -0.0528
AGGGATGG | -0.0784
TAGCTAAA | 0.0619
GGGAAGAC | -0.278
CGGACTAA | 0.0322
AGTTTTGC | 0.17
AATCCCCA | 0.124
ACGACGCA | 0.233
CACACCAG | -0.011
CTGCACAG | -0.0536
CCGGAGAC | -0.173
ATAGAACC | -0.217
ACTAGTAT | 0.237
CAGAGGAC | -0.133
ACAGACCA | 0.00368
GTGGGCGA | -0.04
GTATTCGA | 0.0149
ACGGATCT | 0.0629
CCATGAAA | -0.106

Sequence | PBM E-score
CTAGCCAC | -0.234
GCGTTGTA | 0.315
CGCGGATA | 0.0379
ACTGAAAA | 0.0169
ATCACCAG | -0.156
GGTAGTCA | -0.178
CTTCTCTC | -0.0454
ACGCCTCG | 0.0229
CTTAGCTA | -0.0429
AGCTACGC | 0.0969
TAAAGAAA | 0.275
ACGTTAGG | 0.0618
ACGAACGC | 0.00819
AGTAGCAC | -0.102
TCATGGAA | -0.157
GGAACTCA | -0.161
TCATAGGA | -0.117
CTGACCGC | -0.24
AAGGATAG | -0.155
ACATGGGT | 0.382
ACAAGGGT | 0.206
AACGCTCC | -0.00884
